The whole screen tested about 310,000 compounds, of which about 2,200 (0.71%) showed an effect of 50% or more. The effect is printed as a negative number. This is one part of the list.
Target: human ether-à-go-go-related gene (hERG) potassium channel (human, UniProt Q12809)
Test: primary screen, population patch clamp on CHO cells stably expressing hERG

human ether-à-go-go-related gene (hERG) potassium channel, sequence (Q12809 whole entry, looked up): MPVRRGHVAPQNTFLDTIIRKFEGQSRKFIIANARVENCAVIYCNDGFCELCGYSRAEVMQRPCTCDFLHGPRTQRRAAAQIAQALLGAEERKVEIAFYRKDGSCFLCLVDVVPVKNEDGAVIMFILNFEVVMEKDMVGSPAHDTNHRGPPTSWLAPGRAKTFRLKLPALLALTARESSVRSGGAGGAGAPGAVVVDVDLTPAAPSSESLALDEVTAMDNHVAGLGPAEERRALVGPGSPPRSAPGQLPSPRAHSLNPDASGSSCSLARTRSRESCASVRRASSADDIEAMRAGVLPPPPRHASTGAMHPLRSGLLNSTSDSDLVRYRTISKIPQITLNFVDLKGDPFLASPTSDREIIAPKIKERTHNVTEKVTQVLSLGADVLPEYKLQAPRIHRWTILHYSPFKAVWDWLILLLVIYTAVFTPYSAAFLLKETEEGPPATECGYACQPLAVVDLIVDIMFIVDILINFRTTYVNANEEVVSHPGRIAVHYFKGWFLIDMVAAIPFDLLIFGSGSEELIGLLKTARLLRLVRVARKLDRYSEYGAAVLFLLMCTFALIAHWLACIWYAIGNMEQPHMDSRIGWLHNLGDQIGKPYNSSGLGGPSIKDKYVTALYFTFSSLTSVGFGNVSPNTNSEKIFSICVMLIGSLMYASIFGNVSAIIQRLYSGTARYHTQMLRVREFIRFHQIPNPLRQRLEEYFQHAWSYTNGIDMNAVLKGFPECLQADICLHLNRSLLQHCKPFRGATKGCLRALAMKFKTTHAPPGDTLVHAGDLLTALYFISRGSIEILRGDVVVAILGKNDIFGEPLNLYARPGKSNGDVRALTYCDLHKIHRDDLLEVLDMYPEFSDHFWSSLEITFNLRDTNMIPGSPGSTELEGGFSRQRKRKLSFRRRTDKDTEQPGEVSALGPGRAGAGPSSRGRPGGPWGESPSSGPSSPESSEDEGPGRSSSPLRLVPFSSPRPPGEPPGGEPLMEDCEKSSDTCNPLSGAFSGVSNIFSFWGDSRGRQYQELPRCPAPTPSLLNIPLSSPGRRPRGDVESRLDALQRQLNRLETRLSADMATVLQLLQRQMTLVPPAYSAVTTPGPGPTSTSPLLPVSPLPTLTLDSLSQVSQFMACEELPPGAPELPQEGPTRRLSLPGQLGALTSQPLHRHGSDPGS

Row | Compound | hERG current change (%, negative = inhibition) at 1uM
1 | COc1ccc(NC(=O)C2CC(=O)n3cnnc3S2)cc1 (centres unmarked) | 3.46%
2 | Nc1nnc(SCC(=O)NNC(=O)c2ccc(Cl)cc2)s1 | 4.21%
3 | Cc1cccn2c(=O)c3cc(C(=O)NC4CCCC4)c(=N)n(C4CCCC4)c3nc12 | -87%
4 | N#C/C(=C/c1ccc(F)cc1)S(=O)(=O)c1ccccc1 | 15.3%
5 | Cn1nc(C(=O)Nc2c(-c3ccccc3)nc3sccn23)c2ccccc2c1=O | 11.3%
6 | CCN(CC)C(=O)C(=O)N/N=C/c1ccc(Cl)cc1Cl | 15.5%
7 | COc1ccc(CN2C(=O)c3cccnc3C2=O)cc1S(=O)(=O)N1CCOc2ccccc21 | 8.41%
8 | COc1ccc(NC(=O)C2CCC(CNS(=O)(=O)c3csc(C(N)=O)c3)CC2)cc1OC (centres unmarked) | 9.25%
9 | O=C(NC1=NCCS1)c1cccc(NC(=O)c2ccco2)c1 | 4.96%
10 | O=c1[nH]cnc2c1N=C(c1cccc([N+](=O)[O-])c1)CC(c1ccccc1)N2 (centres unmarked) | 5.58%
11 | COc1cccc(NC(=S)NNC(=O)Cn2nc([N+](=O)[O-])cc2C)c1 | 10.8%
12 | Cc1ccccc1Oc1cccc(C(=O)/C(C#N)=C/N(C)C)c1 | 2.42%
13 | CN(C(=O)c1ccc(-c2ccccc2)cc1)C1CCCCC1 | 8.17%
14 | Cc1cc(C(=O)NN)c(C)o1 | 6.37%
15 | COc1ccccc1Cn1c(=S)[nH]c2cc(C(=O)N3CCCC3)ccc2c1=O | 15.5%
16 | CCOC(=O)CSc1ccc(C(=O)NCCCN2CCOCC2)cc1[N+](=O)[O-] | 12.1%
17 | O=C(Nc1cc([N+](=O)[O-])ccc1Cl)c1ccc2c(c1)OCO2 | 1.35%
18 | O=c1[nH]c(C2CCN(S(=O)(=O)c3ccc(S(=O)(=O)NC4CC4)cc3)CC2)nc2c1nnn2Cc1ccc(F)cc1 | 8.18%
19 | CCN(c1ccccc1)S(=O)(=O)c1ccc(C(=O)OC(C)C(=O)NCCC2=CCCCC2)cc1 (centres unmarked) | -0.469%
20 | CCOC(=O)CCN(Cc1sccc1C)S(=O)(=O)c1ccc(F)cc1 | 8.05%
21 | O=C(NCc1ccc2c(c1)OCO2)c1ccco1 | 6.56%
22 | CCCC(=O)NC(C)C(c1cccs1)N1CCN(c2ccccc2)CC1 (centres unmarked) | -1%
23 | Cc1ccn2c(=O)nc(SCC(=O)N3CCC(Cc4ccccc4)CC3)nc2c1 | -11.4%

Row | Compound | hERG current change (%, negative = inhibition) at 1uM
24 | C=CCNC(=S)N1CCC(C(=O)c2ccc(C)cc2)CC1 | 1.96%
25 | COc1ccccc1N1CCN(C2CCCN(C(=O)CCc3cnccn3)C2)CC1 (centres unmarked) | 14%
26 | CN1CCC(=NNC(=O)c2ccc(N(Cc3ccc(Cl)cc3)S(C)(=O)=O)cc2)CC1 | -1.1%
27 | c1ccc(-c2csc3ncnc(NCc4ccccn4)c23)cc1 | 0.364%
28 | COCCNC(=O)C(c1ccc(C)o1)N(C(=O)c1snc(C(N)=O)c1N)c1cccc(C)c1 (centres unmarked) | -2.24%
29 | CN(C)/C=C(/C(=O)c1ccccc1)n1cncn1 | 14.6%
30 | COc1ccc(C2CC(=O)Nc3sc(=N)c4c(N)c(C#N)c(N)nc4c32)cc1OC (centres unmarked) | 12.9%
31 | COc1ccc(-n2nc([N+](=O)[O-])c(=NCc3cccnc3)n2O)cc1 | 7.08%
32 | CCOC(=O)C(NCc1ccccc1OC)(NC(=O)CC)C(F)(F)F (centres unmarked) | 13.7%
33 | Cc1cc(C)c(S(=O)(=O)C(C)C)c(=O)[nH]1 | 12.2%
34 | CCC1(C)CC(c2csc(N)n2)CCO1 (centres unmarked) | -6.74%
35 | CCOc1ccc(N(CC(=O)N2CCN(Cc3ccccc3)CC2)S(C)(=O)=O)cc1 | 7.68%
36 | O=C(COC(=O)c1ccccc1Br)Nc1nnc(-c2ccccc2)o1 | 0.935%
37 | O=Cc1c(NCc2cccc(F)c2)c2ccccc2[nH]c1=O | 11.8%
38 | O=S(=O)(NC1=NCCC1)c1ccc(F)cc1 | 14.8%
39 | COc1ccccc1NC1=NCCS1 | -11.3%
40 | O=[N+]([O-])c1ccc(OCCO)nc1 | 12.3%
41 | Cc1cccc(NC(=O)CSCC(=O)Nc2cc(Cl)ccc2N2CCN(C)CC2)c1 | -25.9%
42 | Cc1cc(C)nc(SCC(=O)c2ccc(F)c(C)c2)n1 | 10.9%
43 | Cc1cc(C)nc(/N=C(\N)Nc2ccc(SC(F)F)cc2)n1 | -52.9%
44 | O=C(NN1C(=O)/C(=C/c2cccs2)SC1=S)c1cccnc1 | 11.6%
45 | Cc1c(N2C(=O)C(=O)/C(=C(/O)c3ccccc3)C2c2ccc(F)cc2)c(=O)n(-c2ccccc2)n1C (centres unmarked) | 8.19%
46 | C/C(=N\c1nc2ccccc2n1C)c1cc(Cl)ccc1O | 3.41%

Row | Compound | hERG current change (%, negative = inhibition) at 1uM
47 | C=CCN1C(=O)CSC1=Nc1ccc(NC(C)=O)cc1 | 2.58%
48 | O=C(NC(=S)Nc1ncccn1)c1ccccc1Br | 12.3%
49 | O=C(CCc1ccccc1)NC(=S)Nc1cccc(C(=O)O)c1 | 1.62%
50 | CC(C)(C)c1ccc(S(=O)(=O)O/N=C2/CCCCC2c2ccc([N+](=O)[O-])cc2[N+](=O)[O-])cc1 (centres unmarked) | 11%
51 | CCc1nnc(NC(=O)[C@@H]2CCCN2S(=O)(=O)c2ccc3c(c2)OCCO3)s1 | 10.2%
52 | CC(NS(=O)(=O)c1ccccc1)C(c1cccs1)N1CCOCC1 (centres unmarked) | 6.92%
53 | CCn1c(SCC(=O)Nc2ccc(OC)c(OC)c2)nnc1-c1ccco1 | 9.23%
54 | CCCC(c1nnnn1Cc1ccccc1)N1CCN(c2ccccc2OC)CC1.Cl (centres unmarked) | 15.2%
55 | Cc1[nH]c2ccc(C(=O)NCCCN3CCCCCC3)cc2c1C | 4.52%
56 | Cc1cccc(N2CCN(C(=O)C3CCN(S(=O)(=O)c4cccnc4)CC3)CC2)c1C | -0.987%
57 | Cn1ccnc1SCC(=O)Nc1ccccc1 | -1.32%
58 | O=C(NCCS(=O)(=O)N1CCN(c2cccc(Cl)c2)CC1)c1ccc2c(c1)OCO2 | 15.7%
59 | CCCC12CN3CC(C)(CN(C1)C3c1ccc(OC)cc1)C2=O (centres unmarked) | 5.01%
60 | CCN1CCN(c2nc(C)c3c(n2)CCCC3=O)CC1 | 14.1%
61 | Cc1cc(=O)n2nc(-c3ccccc3)sc2n1 | 5.68%
62 | COC(=O)c1ccc2c(=O)n(C3CCCCC3)c(SCC#N)nc2c1 | 17.3%
63 | Cc1cccc(NC(=O)CN2C(=O)S/C(=C\c3ccc(O)c([N+](=O)[O-])c3)C2=O)c1 | 12.7%
64 | CCS(=O)(=O)N1CCC(NC(=O)c2ccco2)CC1 | 16.6%
65 | O=C(NCCOc1ccc(F)cc1)C1CCC(=O)N(CCCN2CCCC2=O)C1 (centres unmarked) | 14.2%
66 | CCOC(=O)c1cc2c(ccn2C)n1CC(=O)N(Cc1ccccc1)c1ccccc1 | -2.73%
67 | O=C(NCCOc1ccccc1)c1ccc2n[nH]nc2c1 | 0.707%
68 | Cc1nc2cc(C(F)(F)F)ccc2n1C1CCN(Cc2nnnn2Cc2ccc3c(c2)OCO3)CC1 | -32.4%
69 | COc1cc(/C=C2/C(=O)NN(c3ccc(Cl)cc3)C2=O)ccc1OC(=O)c1ccco1 | 14.6%

Row | Compound | hERG current change (%, negative = inhibition) at 1uM
70 | Nc1c(C(=O)Nc2ccccc2)sc2nc3c(c(-c4ccco4)c12)CCCC3 | 22.1%
71 | CC(OC(=O)CCCC(=O)Nc1ccc(F)cc1)C(=O)c1ccccc1 (centres unmarked) | 12.7%
72 | O=C(c1ccc(CN2CCc3ccccc3C2)cc1)N1CCN(c2ccc(F)cc2)CC1 | -20.1%
73 | COc1ccc(CC(=O)NNC(=O)c2ccccn2)cc1 | 5.87%
74 | N#Cc1ccc(C(=O)Nc2nc(SCc3ccc(Cl)cc3)n[nH]2)cc1 | -9.07%
75 | COc1ccc(C(CNC(=O)C2CC2)N(C)C)cc1 (centres unmarked) | 8.34%
76 | CN(C)c1ccc(/C=N\Nc2nc(-c3ccccc3)cc(=O)[nH]2)cc1 | 9.73%
77 | COc1ccc(OC)c(-c2cc(C(=O)N3CCCc4ccccc43)no2)c1 | 3.57%
78 | COc1cc2[nH]c(=O)n(CCC(=O)N3CCN(c4cccc(C)c4C)CC3)c(=O)c2cc1OC | -1.05%
79 | O=C(CSc1cccc[n+]1[O-])NCCCc1ccccc1 | 2.59%
80 | CCN(CC)CCCN1C(=O)C(O)=C(C(=O)c2ccco2)C1c1ccc(C)o1 (centres unmarked) | 1.25%
81 | CO/C(N)=C(\C#N)N=Cc1ccccc1Cl | 8.52%
82 | Cc1ccc(-c2csc(NC(=O)c3ccc(-c4ccccc4)cc3)n2)o1 | 11.2%
83 | Cc1ccccc1NS(=O)(=O)c1nnc(NC(=O)C(C)C)s1 | 15.7%
84 | FC(F)(F)c1ccc(CSc2ccccn2)cc1 | 11.3%
85 | CN(C)S(=O)(=O)N1CCN(c2cccc(Cl)c2)CC1 | 7.21%
86 | Cc1cc(C)n2c(SCc3ccc(Cl)cc3Cl)nnc2n1 | 4.94%
87 | Cc1ccc(C(=O)/C=C/c2ccc3c(c2)OCCO3)c(O)c1 | 13.2%
88 | CCCc1c(C(=O)N/N=C(\C)CCc2ccccc2)nnn1-c1nonc1N | 13.3%
89 | Cc1ccc(S(=O)(=O)N2CCN(C)CC2)c2nsnc12 | 10.9%
